Laboratory results from the RNAGym collection of RNA variant scans (doi:10.7554/elife.90254).
Read counts are not given, so values of variants with three or more changes are uncertain.

B1: OR4K15 (parent)
chain: GUUAACGGUCAUAGGCCAUGGAAACUAGGAGCACCAUUUCGCUGCCAGUGAAGAAAUGAACAAAGAAAAUCUGGGCCAGGCAGGCAUCAAAAGAAAUAGUCUUGCGCUCAACCAGAAAGUCUGUAAUCAUUUUAAGGGUA

Variants of: B1
Assay: self-cleavage, relative activity (ratio to wild type); higher = more cleavage; in vitro, sequencing; the parent is a self-cleaving ribozyme

| Variant | self-cleavage |
| --- | --- |
| GUUAACGGUCAUAGGCCAUGGAAACUAGGAGCACCAUAUCGCUGCCAGCGAAGAAAUGAACAAAGAAAAUCUGGGCCAGGCAGGCAUCGAAGGAAAUAGUCUUGCGCUCAACCAGAAAGUCUGUAAUCAUUUUAAGGGUA [U38A U49C A89G A92G] | 1.24 |
| GUUAACGGUCAUAGGCCAUGGAAACUAGGAGCGCCAUUUCGCUGCCGGUGAAGAAAUGAACAAAGAAAAUCUGGGCCAGGCAGGCAUCAAAAGAAAUAGUCUUGCGCUCAACCAGAAAGUCUGUAAUCAUUUUUAGGGUA [A33G A47G A134U] | 0.89 |
| GUUAACGGUCAUAGGCCAUGGAAACUAGGAGCACCAUUUUGCUGCCAGUGGAGAAAUGAAUAAAGAAAAUCUGGGCCUGGCAGGCAUCAAAAGAAAUAGUCUUGCGCUCAACCAGAAAGUCUGUAAUCAUUUUAAGGGUA [C40U A51G C61U A78U] | 0.22 |
| GUUAACGGUCAUUGGCCAUGGAAACUAGGAGCACCAUUUCGCUGCCAGUGAGGAAAUGAACAAAGAAAAUCUGGGCCAGGCAGGCAUCAAAAGAAAUAGUCUUGCGCUCAACCAGAGAGUCUGUAAUCAUUUUAAGGGUA [A13U A52G A117G] | 1.58 |
| GUUAACGGUCAUAGGCCAUGGAAACUGGGAGCACCAUUUCGCUGCCAGUGAAGAAAUGAACAAAGAAAAUCUGGGCCAGGCAGGCAUCAAGAGAAAUAGUCUUGCGCUCAACCAGAAAGUCUGUAAUCAUUUUAAGGGUG [A27G A91G A140G] | 1.12 |
| GUUAACGGUCAUAGGCCAUGGAAACUAGGAGCACCAUUUCGCUGCCAGUGAAGAAAUGAACAAAGAAGAUCUGGGCCAGGCAGGCACCAAAAGAAAUAGUCUUGCGCUCAACCAGAAAGUCUGUAAUCUUUUUAAGGGUA [A68G U87C A129U] | 0.07 |
| GUUAACGGUCAUAGGCCAUGGAAACUAGGAGCACCAUCUCGCUGCCUGUGAAGAAAUGAACAAAGAAAAUCUGGGCCAGGCAGGCGUCAAAAGAAAUAGUCUUGCGCUCAACCAGAAAGUCUGUAAUCAUUUUAAGGGUA [U38C A47U A86G] | 1.21 |
| GUUAACGGUCAUAGGCCAUGGAAACUAGGGGCACCAUUUCGCUGCCAGUGAAGAAAUGGACUAAGAAAAUCUGGGCCAGGCAGGCAUCAAAAGAGAUAGUCUUGCGCUCGACCAGAAGGUCUGUAAUCAUUUUAAGGGUA [A30G A59G A62U A95G A110G A118G] | 0.2 |
| GUUAACGGUCAUAGACCAUGGAAACUAGGAGCACCAUUCCGCUGCCAGUGGAGAAAUGAACAAAGAAAAUCUGGGCCAGGCAGGCAUCAAAAGAAAUAGUCUUGCGCUCGACCAGAAAGUCUGUAUUCAUUUUAAGGGUA [G15A U39C A51G A110G A126U] | 0.1 |
| GUUAACGGUCAUAGGCCAUGGAAACUAGGAGCACCAUUUCGCUGCCAGUGAGGAAAUGAACAAAGAAAAUCUGGGCCAGGCAGGCAUCAAAAGAAAUAGCCUUGCACUCAACCAGAAAGUCUGUAAUCAUUUUAAGGGUA [A52G U100C G106A] | 0.01 |
| GUUAACGGUCAUAGGCCAUGGAGACUAGGAGCACCAUUUCGCUGCCAGUGAAGAAAUGAACAAAGAAAAUCUGGGCCAGGCAGGCAUCAAAGGAAAUAGUCUUGCGCCCAACCAGAAAGUCUGUAAUCAUUUUAAGGGUA [A23G A92G U108C] | 0.08 |
| GUUAACGGUCAUAGGCCAUGGAAACUAGGAGCACCAUUUCGCUGCUAGUGAAGAAAUGAACAAAGAAAAUCUGGGCCAGGCAGGCAUCAAAAGAAAUAGUCUUGCGCCCAACCAGAAAGUCUGUAAACAUUUUAAGGGUA [C46U U108C U127A] | 0.02 |
| GUUAACGGUCAUAGGCCAUGGUAACUAGGAGCACCAUUUCGCUGCCAGUGAAGAAAUGAACAAAGAGAAUCUGGGCCAGGCAGGCAUCAAAAGAGAUAGUCUUGCGCUCAACCAGAAAGUCUGUAAUCAUUUCAAGGGUA [A22U A67G A95G U133C] | 2.24 |
| GUUAACGGUCAUAGGCCAUGGAAACUAGGGGCGCCAUUUCGCUGCCAGUGAAGAAAUGAACAAGGUAAAUCUGGGCCAGGCAGGCGUCAAAAGAAAUAGUCUUGCGCUCAGCCAGAAGGUCUGUAAUCAUUUUAAGGGUA [A30G A33G A64G A66U A86G A111G A118G] | 0.02 |
| GUUAACGGUCAUAGGCCAUGGAAACUAGGAGCACCAUUUCGCUGCCAGUGAAGAAAUGAACAAGGAGAAUCUGGGCCAGGCAGGCAUCAAAAGAAAUAGUCUAGCGCUCAACCAGAAAGUCCGUAAUCAUUUUAAGGGUA [A64G A67G U103A U122C] | 0.65 |
| GUUAACGGUCAUAGGCCAUGGAAACUAGGAGCACCAUUUCGCUGCCAGUGAAGAAAUGAGCAAAUAAAAUCUGGGCCAGGCAGGCAUCAAAAGAAAUAGUCUUGCGCUCAACCAGAAAGUCUGUAAUCGUUUUAAGGGUA [A60G G65U A129G] | 0.11 |
| GUUAACGGUCAUAGGCCAUGGAAACUAGGUGCACCAUUUCGCUGCAAGUGAAGAAAUGAGCAAAGGGAAUCUGGGCCAGGCAGGCAUCAAAAGAAAUAGUCUUGCGCUCAACCAGAAAGUCUGUAAUCAUUUUAAGGGUA [A30U C46A A60G A66G A67G] | 0.73 |
| GUUAACGGUCAUAGGCCAUGGAAACUAGGAGCACCAUUACGCUGCCAGUGAAGAAAUGAACAAAGAAAAUCUGGGCCAGGCAGGCAUCAAAAGAAAUAGUCUUGCGCUCAACCAGAAAGUCUGUAACCAUUUUAAGGGAA [U39A U127C U139A] | 1.23 |
| GUUAACGGUCAUAGGCCAUGGAAACUAGGUGCACCAUUUCGCUGCCAGUGAAGAUAUGAACAAAGAAAAUCUGGGCCAGGCAGGCAUCGAAAGAAAUAGUCUUGCGCUCAACCAGAAAGUCUGUAAUCAUUUUAAGGGUA [A30U A55U A89G] | 1.41 |
| GUUAACGGUCAUAGGCCAUGGAAACUAGGAGCACCAUUUCGCUGCCAGUGAAGAAAUGUACAAAGAAAAUCUGGGCCAGGCGGGCAUCAAAGGAAAUAGUCUUGCGCUCAACCAGAAAGUCUGUAAUCAUUUUAAGGGUA [A59U A82G A92G] | 0.7 |

| Variant | self-cleavage |
| --- | --- |
| GUUAACGGUCAUAGGCCAUGGAAACUAGGAGCACCACUUCGCUGCCAGUGAAGAAAUGAACAAAGAAAAUCUGGGCCAGGCAGGCAUCAGAAGAAAUAGUCUUGCGCUCAACCAGAAGGUCUGUAAUCAUUUUAAGGGUA [U37C A90G A118G] | 0.34 |
| GUUAACGGUCAUAGGCCAUGGGUACUAGGAGCACCAUUUCGCUGCCAGUGAAGAGAUGAACAAAGAAAAUCUGGGCCAGGCAGGCAUCAAAAGAAAUAGUCUUGCGCUCAACCAGAAAGUCUGUAAUCAUUUUAAGGGUA [A22G A23U A55G] | 0.63 |
| GUUAACGGUCAUAGGCCAUGGAAACUAGGAGCACCAUUUCGCCGCCAGUGAAGAAAUGAACAAAGAAAAUCUGGGCCAGGCAGGCAUCAAAAGAAAUAGUCUUGCGCUCAGCCGGAAAGUCUGUAAUCAUUUUAAGGGUA [U43C A111G A114G] | 0 |
| GUUAGCGGUCAUAGGCCAUGGAAACUAGGAGCACCAUUUCGCCGCCAGUGAAGAAAUGAACAAAGAAAAUCUGGGCCAGGCAGGCAUCAAAAGAAAUAGUCUUGCGCUCAACCAGAAAGUCUGUGAUCAUUUUAAGGGUA [A5G U43C A125G] | 0.37 |
| GUUAACGGUCAUAGGCCAUGGAAACUAGGAGCACCAUUUCGCUGCCAGUGAAGAAAUGAACAAAGAAAAUCUGGGCCAGGCAGGCAUCAAAGGAAAUAGUCUUGCGCUCAACCAGAGAGUCCGUAAUCAUUUUAAGGGUA [A92G A117G U122C] | 1.64 |
| GUUAACGGUCACAGGCCAUGGAAACUAGGAGCACCAUUUCGCUGCCAGUGAAGAGAUGAACAAAGAAAACCUGGGCCCGGCAGGCAUCAAGAGAAAUAGUCUUGCGCUCAACCAGAAAGUCUGUCAUCAUUUUAAGGGUA [U12C A55G U70C A78C A91G A125C] | 0.13 |
| GUUAACGGUCAUAGGCCAUGGAAAUUAGGAGCACCAUUUCGCCGCCAGUGAAGAAAUGAACAAAGAAAAUCCGGGCCAGGCAGGCAUCGAAAGAAAUAGUCAUGCGCUCAACCAGAAAGUCUGUAAUCAUUUUAAGGGUA [C25U U43C U72C A89G U102A] | 0.03 |
| GUUAACGGUCAUAGGUCAUGGAAACAAGGAGCACCAUUUCGCUGCCAGUGAAGAAAUGAACGAAGAAAAUCUGGGCCAGGCAGGCAUCAAAAGAAAUAGUCUUGCGCUCAACCAGAAAGUCUGUACUCAUUUUAAGGGUA [C16U U26A A62G A126C] | 0.77 |
| GUUAACGGUCGUAGGCCAUGGAAACUAGGAGCACCAUUUCGCUGCCAGUGAGGAAAUGAACAAAGAAAAUCUGGGCCAGGCCGGCAUCAAAAGAAAUAGUCUUGCGCUCAACCAGAAAGUCUGUAAUCGUUUUAAGGGUA [A11G A52G A82C A129G] | 0.06 |
| GUUAACGGUCAUAGGCCAUGGAAACUAGGAGCACCAUUCCGCUGCCAGUGAAGAAAUGAACAGAGAAAAUCUGGGCCAGGCAGGCAUCAAAAGAAAUAGUCUUGCGCUCAACCAGAAAGUCCGUAAUCAUUUUAAGGGUA [U39C A63G U122C] | 1.43 |
| GUUAACGGUCAUAGGCCAUGGAAACUAGGAGCACCAUUUCGCUGCCAGUGGAGAAAUGAAUAAAGAAGAUCUGGGCCAGGCAGGCAUCAAAAGAAAUAGUCUUGCGCUCAACCAGAAAGUCUGUAGUCAUUUUAAGGGUA [A51G C61U A68G A126G] | 1.78 |
| GUUAACGGUCAUAGGCCAUGGAAACUAGGAGCACCAUUUCGCUGCCCGUGAAGAAAUGACCAAAGAAAAUCUGGGCCAGGCAGGCAUCAAAAGAAAUAGUCUUGCGCUCAACCAGAGAGUCUGUAAUCAUUUUAAGGGUA [A47C A60C A117G] | 2.45 |
| GUUAACGGUCAUAGGCCAUGGAGACUAGGAGCACCAUUUCGCUGCCAGUGAAGAAAUGAACAAAGAAAAUCUGGGCUAGGCAGGCAUCAAAAGAAAUAGUCCUGCGCUCAACCAGAAAGUCUGUAAUCAUUUUAAGGGUA [A23G C77U U102C] | 1.05 |
| GUUAACGGUCAUAGGCCAUGGAAACUAGGAGCACCAUUUCGCUGCCAGUGAGGAAAUGAACAAAGAAAAUCUAGGCCAGGCAGGCAUCAAAAGAAAUAGUCUUGCGCCCAACCAGAAAGUCUGUAAUCAAUUUAAGGGUA [A52G G73A U108C U130A] | 0.02 |
| GUUAACGGUCAUAGGCCAUGGAAACUAGGAGCACCACUUCGCUGCCAGUGAAGAAAUGAACAACGAAAAUCUGGGCCAGGCAGGCAUCAAAAGAAAUAGUCUUGCGCUCAACCAGAAAGUCUGUAAUCAUUUCAAGGGUA [U37C A64C U133C] | 0.89 |
| GUUAACGGUCGUAGGCCAUGGAAGCUAGGAGCACCAUUUCGCUGCCAGUGAAGAAGUGAACAAAGAAAAUCUGGGCCAGGCAGGCGUCAAAAGAAAUAGUCUUGCGCUCAACCAGAAAGUCUGUAAUCAUUUUAAGGGUA [A11G A24G A56G A86G] | 0.59 |
| AUUAACUGUCAUAGGCCAUGGAAACCAGUAGCACCAUUUCGCUGCCAGGGAAGAAAUGAACAAAGGAAAUCUGGGCCAGGCAGGCAUCAAAAGAAAUAGUCUUGCGCUCAACCAGAAAGUCUGUAAACAUUUUAAGGGUA [G1A G7U U26C G29U U49G A66G U127A] | 2 |
| GUUAACGGUCAUAGGCCAUGGAAACUAGGCGCACCAUUUCGCUGCCAGUGAAGAAAUGAACAAAGGAAAUCUGGGCCAGGCAGGCAUCAAAAGAAAUAGUCUUGCGCUCAACCAGAAAGUCUGUAAGCAUUUUAAGGGUA [A30C A66G U127G] | 2 |
| GUUAACGGUCAUAGGCCAUGGAAACUGGGAGCACCAUUUCGCUGCCAGUGAAGAAAUGAACAAAGAAAAUCUGGGCCAGGCAGGCAUCAAAGGAAACAGUCUUGCGCUCAACCAGAAAGUCUGUAAUCAUUUUAAGGGUA [A27G A92G U97C] | 0.68 |
